Laboratory results reported in PubChem BioAssay AID2546 (National Center for Advancing Translational Sciences (NCATS), 2010).
Among all 310,000 compounds or so, about 11,000 (3.5%) were called active. Inconclusive results, whose numbers are uncertain, are shown with a selection of clear calls. Calls follow the shape of the dose curve; as a rule, active = well fitted inhibition curve with a large enough effect; inconclusive = small, poorly fitted or top-dose-only effect, or effect the other way; inactive = flat fitted curve, though single readings scatter. Potencies of inconclusive entries are left out as doubtful fits.

Assay: VP16 counterscreen qHTS for inhibitors of ROR gamma transcriptional activity;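 also: Gal4-VP16 expression switched on by copper sulfate through the metallothionein promoter; nearly all actives have a fitted effect of over 50% in size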
Conditions: Drosophila S2 Gal4-VP16 UAS-luciferase, luminescence, 20 h; activity, negative = inhibition: at 53.6 µM (top of the series)
% is scaled to controls: 0 for no effect and ±100 for the full control effect; potency is read from the fitted curve at half-maximal effect; tags tell the direction and shape of the fitted curve.

SMILES | Potency | activity, negative = inhibition
NC(=O)c1c(NC(=O)c2cccc(N3C(=O)CCC3=O)c2)sc2c1CCCCC2 | inconclusive [activator, single point] | –
CC(=O)Oc1cc(OC(C)=O)c2c(=O)cc(-c3ccc(OC(C)=O)c(OC(C)=O)c3)oc2c1 | active: 35.5 µM | –
Cc1oc2ccc(O)cc2c1C(=O)c1ccc(Cl)cc1 | inactive | –
Cc1ccc(CN2CCC(n3nccc3NC(=O)c3ccccc3C)CC2)o1 | inconclusive [inhibitor, partial curve, poor fit] | –
O=C(c1ccc(Br)o1)N1CCc2ccccc21 | inconclusive [activator, single point] | –
Cc1nc(NC(=O)CSc2nc3cccnc3n2C2CCCCC2)sc1C | inconclusive [inhibitor, partial curve] | –
Cc1cc(C=O)c(C)n1-c1ccc(Oc2ccc([N+](=O)[O-])cn2)cc1 | inconclusive [inhibitor, single point] | –
Cc1ccccc1-n1c(Cc2cccs2)n[nH]c1=S | inconclusive [inhibitor, single point] | –
COc1ccc(/C=C/c2nc3ccccc3n2Cc2ccc(OC)c(OC)c2)cc1 | inconclusive [inhibitor, single point] | –
COc1ccc(OC)c(C2C(C(N)=O)=C(C)Nc3nc(-c4cccc(Cl)c4)nn32)c1 (stereo not drawn) | active: 17.8 µM | –
O=C(Nc1cccc(F)c1)C1CC(=O)N(c2ccc(Br)cc2)C1 (stereo not drawn) | inactive | –
NC(=O)c1c(N)sc2c1CCC2 | inactive | –
O=C(N=Nc1ccc(NOC(=O)c2ccccc2Br)cc1)c1ccccc1O | inconclusive [inhibitor, single point] | –
N#Cc1cccnc1Oc1ccccc1 | inactive | –
Cn1ncc(Cl)c(Oc2ccc(Cl)cc2)c1=O | inconclusive [activator, single point] | –
Oc1ccc(N=Cc2c(O)ccc3ccccc23)cc1 | inconclusive [inhibitor, single point] | –
COCCN=c1scc(-c2cccs2)n1/N=C/c1ccc(O)c(O)c1O | inconclusive [inhibitor, single point] | –
Cc1ccc(/C(N)=N/OC(=O)c2ccco2)cc1 | inconclusive [inhibitor, single point] | –
CCCCC(=O)N/N=C(\C)CC(=O)Nc1ccccc1Br | inconclusive [inhibitor, single point] | –
NC(=O)N/N=C/c1ccccc1OCc1cccc2ccccc12 | inconclusive [inhibitor, single point] | –
CCCCCc1c(C)nc(Nc2nc(C)c3cc(OC)ccc3n2)[nH]c1=O | inactive | –
Cc1nnc2sc(SCc3ccccc3Cl)nn2c1=O | inconclusive [activator, partial curve] | –
CNc1c(N)c(=O)oc2ccccc12 | – | inactive: -5.92% [at 10 µM]
O=C(CSc1nc2ccccc2c(=O)n1Cc1ccco1)N1CCCCCC1 | inconclusive [inhibitor, single point] | –
COC(=O)CN(CCc1ccccc1)S(=O)(=O)c1ccc(OC)c(OC)c1 | inconclusive [inhibitor, single point] | –

SMILES | Potency | activity, negative = inhibition
O=C(CSc1nc2scc(-c3ccccc3)c2c(=O)[nH]1)Nc1ccccc1 | inconclusive [inhibitor, single point] | –
Cc1cc(=O)c2ccccc2n1CC(=O)NCc1ccccc1 | inconclusive [inhibitor, single point] | –
CCOC(=O)Nc1ccc2c(CNC(C)c3ccccc3OC)cc(=O)oc2c1 (stereo not drawn) | inactive | –
O=[N+]([O-])c1cc(S(=O)(=O)N2CCCC2)ccc1N/N=C/c1ccncc1 | inconclusive [activator, single point] | –
Cc1ccc(S(=O)(=O)N2CC=C(c3ccc(F)cc3)CC2)cc1 | inconclusive [inhibitor, single point] | –
Cc1ccc2cc(CN(Cc3ccco3)C(=O)c3ccccc3)c(=O)[nH]c2c1C | inactive | –
CNc1nc2c(c(=O)n(C)c(=O)n2C)n1Cc1ccccc1 | inconclusive [inhibitor, single point] | –
O=C(Nc1nc(-c2ccccc2)cs1)C1c2ccccc2Oc2ccccc21 | inactive | –
O=[N+]([O-])c1cccc(/C=N/n2cnnc2)c1O | inactive | –
Cc1ccc2oc(/N=C(\N)NC(=O)C(C)(C)C)nc2c1 | active: 0.447 µM | –
Cc1cc(C)c2c(=O)n(CC(=O)Nc3ccc(Br)c(C)c3)sc2n1 | inconclusive [inhibitor, single point] | –
Cc1ccc(-n2c(C)cc(C(=O)COc3cccnc3[N+](=O)[O-])c2C)cc1 | inconclusive [inhibitor, single point] | –
CCOC(=O)CNC(=O)Cn1cnc2sc(C)c(S(=O)(=O)N3CCOCC3)c2c1=O | inconclusive [inhibitor, single point] | –
Cc1cccc(C)c1OCC(=O)N/N=C/C=C/c1ccco1 | inconclusive [inhibitor, single point] | –
Cc1cc(SCC(=O)c2cccs2)n2nc(C)c(-c3ccccc3)c2n1 | active: 5.62 µM | –
Cc1ccc(C(=O)NNC(=O)c2cc3ccccc3cc2O)cc1 | inconclusive [inhibitor, single point] | –
COC(=O)C/C=C\[C@@H](C)[C@@H](/C=N\OC[C@@H](C)[C@H](OCc1ccccc1)C(C)C)NS(=O)(=O)c1ccc(C)cc1 | – | inactive: -7.15% [at 10 µM]
S=c1[nH]nc(COc2cccc3ccccc23)n1Cc1ccccc1 | inconclusive [inhibitor, partial curve] | –
Nc1c(C(=O)NC2CCCCC2)nsc1C(=O)OCC(=O)NC1CCCCC1 | inconclusive [inhibitor, partial curve, poor fit] | –
CCn1cc(C(C)NC(=O)Nc2ccc3c(c2)OCO3)c(C)n1 (stereo not drawn) | inactive | –
CNc1ccc(-c2nc3ccccc3s2)cc1 | inconclusive [inhibitor, full curve, poor fit] | –
Cc1cc(-c2cc(C(=O)NCc3ccccc3)on2)nc(S(C)(=O)=O)n1 | inconclusive [inhibitor, single point] | –
c1ccc(CN2CCC(Nc3ncnc4sccc34)CC2)cc1 | inconclusive [inhibitor, single point] | –
O=C(N/N=C/C=C\c1ccccc1[N+](=O)[O-])c1cccs1 | inconclusive [inhibitor, single point] | –
COc1cccc(NC(=O)CSc2ccccn2)c1 | inactive | –

SMILES | Potency | activity, negative = inhibition
COc1ccc(CNC(=S)Nc2ccc(F)c(Cl)c2)cc1 | inconclusive [inhibitor, partial curve] | –
Cc1ccc(NC(=S)NC2CCCC2)cc1 | active: 11.2 µM | –
COc1ccc(OCC(=O)N2CCc3c([nH]c4ccccc34)C2c2ccccn2)cc1 (stereo not drawn) | inactive | –
c1ccc(CCNc2ccnc3cc4ccccc4cc23)cc1 | inconclusive [inhibitor, single point] | –
COc1ccc(C2c3ccc4ccccc4c3Oc3ncn(CCN(C)C)c(=N)c32)cc1 (stereo not drawn) | inconclusive [inhibitor, single point] | –
COc1cc(OC)cc(C(=O)N2CCN(Cc3ccc4c(c3)OCO4)CC2)c1 | inactive | –
CCCCc1ccc(-c2ccc(C)cc2O)nc1 | inconclusive [inhibitor, single point] | –
Cc1nc2cnc(N3CCOCC3)nc2n(Cc2cccs2)c1=O | inactive | –
CC(C)(C)C(=O)NC(=S)Nc1ccc(C(F)(F)F)cc1 | inconclusive [inhibitor, single point] | –
CCn1c(=S)[nH]c2cc(C(=O)OC)ccc2c1=O | active: 11.2 µM | –
CCCOc1ccc(C(=O)NNC(=S)NC(=O)CC)cc1 | inactive | –
CCN1C(=O)CC(c2ccco2)Sc2ccccc21 (stereo not drawn) | inactive | –
O=C(NCc1cccs1)c1cnc(Cl)c(Cl)c1 | inactive | –
O=C(Nc1ncc(Cc2ccc(SC(F)F)cc2)s1)c1ccc(OC(F)F)cc1 | inconclusive [inhibitor, partial curve] | –
COc1ccc(NC(=O)CC(CC(=O)O)c2cc(OC)c(OC)c(OC)c2)cc1 (stereo not drawn) | inactive | –
CC(C)Nc1ncnc2ccc(Br)cc12 | inconclusive [inhibitor, single point] | –
C=CC[C@@H]1C=C[C@@H](O/N=C(/C)CCC(=O)OC[C@@H]2O[C@H](C#Cc3ccccc3)C=C[C@@H]2Oc2ccc(C)cc2)[C@@H](CO)O1 | – | inactive: -2.06% [at 10 µM]
N#CC1=C(N)SC(N)=C(C#N)C1CCc1ccccc1 | inconclusive [inhibitor, single point] | –
Cc1ccc2cccc(NC(=S)NC(=O)c3c(Br)cnn3C)c2n1 | inconclusive [inhibitor, single point] | –
COc1ccc(O[C@H]2C=C[C@@H](c3ccccc3)O[C@@H]2CO/N=C(\C)CCN2CCCCc3nc(C)c(C)cc32)cc1 | inconclusive [inhibitor, single point] | –
CCCCCCCCCOC(=O)C[n+]1csc(CCO)c1C | – | inactive: -15.9% [at 0.365 µM]
CCOC(=O)c1cnc(-n2nc(C)cc2C)nc1NC(C)c1ccccc1 (stereo not drawn) | active: 2.24 µM | –
O=C(c1cc(=O)[nH]c2ccccc12)N1CCN(c2ccc([N+](=O)[O-])cc2)CC1 | inconclusive [inhibitor, single point] | –
